Laboratory results taken from patent US7592419B2, “Macrocyclic inhibitors of hepatitis C virus NS3-serine protease” (Schering Corporation, priority 2003, dated 2009).

Target: Recombinant heterodimeric HCV NS3/NS4A protease (strain 1a) (Hepatitis C virus genotype 1a, UniProt P27958)
Experiment: Spectrophotometric assay for HCV protease inhibitory activity (chromogenic ester substrates)
Type: biochemical, hepatitis C virus (strain 1a)
Experimental: Assay for HCV Protease Inhibitory Activity:
Spectrophotometric Assay: Spectrophotometric assays for the HCV serine protease was performed on the inventive compounds by following the procedure described by R. Zhang et al, Analytical Biochemistry, 270 (1999) 268-275, the disclosure of which is incorporated herein by reference. The assay based on the proteolysis of chromogenic ester substrates is suitable for the continuous monitoring of HCV NS3 protease activity. The substrates were derived from the P side of the NS5A-NS5B junction sequence (Ac-DTEDVVX(Nva), where X=A or P) whose C-terminal carboxyl groups were esterified with one of four different chromophoric alcohols (3- or 4-nitrophenol, 7-hydroxy-4-methyl-coumarin, or 4-phenylazophenol). Presented below are the synthesis, characterization and application of these novel spectrophotometric ester substrates to high throughput screening and detailed kinetic evaluation of HCV NS3 protease inhibitors. Materials and Methods:
Protein concentrations were determined by the Biorad dye method using recombinant HCV protease standards previously quantified by amino acid analysis. Prior to assay initiation, the enzyme storage buffer (50 mM sodium phosphate pH 8.0, 300 mM NaCl, 10% glycerol, 0.05% lauryl maltoside and 10 mM DTT) was exchanged for the assay buffer (25 mM MOPS pH 6.5, 300 mM NaCl, 10% glycerol, 0.05% lauryl maltoside, 5 μM EDTA and 5 μM DTT) utilizing a Biorad Bio-Spin P-6 prepacked column.
Protease Assay: HCV protease assays were performed at 30° C. using a 200 μl reaction mix in a 96-well microtiter plate. Assay buffer conditions (25 mM MOPS pH 6.5, 300 mM NaCl, 10% glycerol, 0.05% lauryl maltoside, 5 μM EDTA and 5 μM DTT) were optimized for the NS3/NS4A heterodimer (D. L. Sali et al, ibid.)). Typically, 150 μl mixtures of buffer, substrate and inhibitor were placed in wells (final concentration of DMSO≦4% v/v) and allowed to preincubate at 30° C. for approximately 3 minutes. Fifty μls of prewarmed protease (12 nM, 30° C.) in assay buffer, was then used to initiate the reaction (final volume 200 μl). The plates were monitored over the length of the assay (60 minutes) for change in absorbance at the appropriate wavelength (340 nm for 3-Np and HMC, 370 nm for PAP, and 400 nm for 4-Np) using a Spectromax Plus microtiter plate reader equipped with a monochrometer (acceptable results can be obtained with plate readers that utilize cutoff filters). Proteolytic cleavage of the ester linkage between the Nva and the chromophore was monitored at the appropriate wavelength against a no enzyme blank as a control for non-enzymatic hydrolysis. The evaluation of substrate kinetic parameters was performed over a 30-fold substrate concentration range (−6-200 μM). Initial velocities were determined using linear regression and kinetic constants were obtained by fitting the data to the Michaelis-Menten equation using non-linear regression analysis (Mac Curve Fit 1.1, K. Raner). Turnover numbers (kcat) were calculated assuming the enzyme was fully active.
Evaluation of Inhibitors and Inactivators: The inhibition constants (Ki*) for the competitive inhibitors Ac-D-(D-Gla)-L-1-(Cha)-C-OH (27), Ac-DTEDVVA(Nva)-OH and Ac-DTEDWP(Nva)-OH were determined experimentally at fixed concentrations of enzyme and substrate by plotting vo/vi vs. inhibitor concentration ([I]o) according to the rearranged Michaelis-Menten equation for competitive inhibition kinetics: vo/vi=1+[I]o/(Ki(1+[S]o/Km)), where vo is the uninhibited initial velocity, vi is the initial velocity in the presence of inhibitor at any given inhibitor concentration ([I]o) and [S]o is the substrate concentration used. The resulting data were fitted using linear regression and the resulting slope, 1/(Ki(1+[S]o/Km), was used to calculate the Ki* value.

[1] = Table 1, 30° C., pH 6.5, read-out: Binding Activity (Ki rating)
[2] = Table 2A, 30° C., pH 6.5, read-out: Binding Activity (Ki rating)
[3] = Table 2, 30° C., pH 6.5, read-out: Activity Ki* (nM) (rating)
[4] = Table 3, 30° C., pH 6.5, read-out: Activity Ki*

Row | Compound | Ki [3] | further results
1 | CN(C)C(=O)[C@@H](NC(=O)CNC(=O)C(=O)[C@@H]1CCCCCCCCCC[C@H](NC(=O)OC(C)(C)C)C(=O)N2C[C@H]3[C@@H]([C@H]2C(=O)N1)C3(C)C)c1ccccc1 [Example 2] |  | Ki [1]: < 100 nM
2 | CC(C)COC(=O)N[C@H]1CC/C=C/CC2(CC2)CC(C(=O)C(=O)NCC(=O)N[C@H](C(=O)O)c2ccccc2)NC(=O)[C@@H]2CCCN2C1=O (some centres unmarked) [Example 82] |  | Ki [2]: ≥ 1000 nM
3 | C=CCNC(=O)C(=O)[C@@H]1CCCCCCCCC[C@H](NC(=O)N[C@H](CN(C)S(=O)(=O)c2ccccn2)C(C)(C)C)C(=O)N2C[C@H]3[C@@H]([C@H]2C(=O)N1)C3(C)C [Example 45] | < 100 nM | 
4 | CN(C)C(=O)[C@@H](NC(=O)CNC(=O)C(=O)[C@@H]1CCCCCCCCCC[C@H](NC(=O)OC(C)(C)C)C(=O)N2C[C@@H]3OC(C)(C)C[C@@H]3[C@H]2C(=O)N1)c1ccccc1 [Example 10] |  | Ki [1]: < 100 nM
5 | C=CCNC(=O)C(=O)[C@@H]1CCCCCCCO[C@@H](C)[C@H](NC(=O)N[C@H](CN2C(=O)CC(C)(C)CC2=O)C(C)(C)C)C(=O)N2C[C@H]3[C@@H]([C@H]2C(=O)N1)C3(C)C [Example 65] | < 100 nM | 
6 | C=CCNC(=O)C(=O)[C@@H]1CCCCCCCCC[C@H](NC(=O)N[C@H](CN(C)S(=O)(=O)N(C)C)C(C)(C)C)C(=O)N2C[C@H]3[C@@H]([C@H]2C(=O)N1)C3(C)C [Example 47] | < 100 nM | 
7 | CCNC(=O)C(=O)[C@@H]1CCCCCCCCC[C@H](NC(=O)N[C@H](CN2CCC(C)(C)CC2=O)C(C)(C)C)C(=O)N2C[C@H]3[C@@H]([C@H]2C(=O)N1)C3(C)C [Example 70] | < 100 nM | 
8 | C=CCNC(=O)C(=O)[C@@H]1CCCCCCCOC[C@H](NC(=O)N[C@H](CN2CCC(C)(C)CC2=O)C(C)(C)C)C(=O)N2C[C@H]3[C@@H]([C@H]2C(=O)N1)C3(C)C [Example 59] | < 100 nM | 
9 | C=CCNC(=O)C(=O)[C@@H]1CCCCCCCCC[C@H](NC(=O)NC2(CS(=O)(=O)C(C)(C)C)CCCCC2)C(=O)N2C[C@H]3[C@@H]([C@H]2C(=O)N1)C3(C)C [Example 27] |  | Ki [1]: < 100 nM; Ki [4]: 5 nM
10 | C=CCNC(=O)C(=O)[C@@H]1CCCCCCCOC[C@H](NC(=O)NC2(CS(=O)(=O)C(C)(C)C)CCCCC2)C(=O)N2C[C@H]3[C@@H]([C@H]2C(=O)N1)C3(C)C [Example 53] | < 100 nM | 
11 | C[C@@H]1OCCCCCCC[C@@H](C(=O)C(=O)NC2CC2)NC(=O)[C@@H]2[C@@H]3[C@H](CN2C(=O)[C@H]1NC(=O)NC1(CS(=O)(=O)C(C)(C)C)CCCCC1)C3(C)C [Example 77] | < 100 nM | 
12 | CC1(C)[C@@H]2[C@H]3C(=O)N[C@H](C(=O)C(N)=O)CCCCCCCCC[C@H](NC(=O)NC4(CS(=O)(=O)C(C)(C)C)CCCCC4)C(=O)N3C[C@@H]21 [Example 28] |  | Ki [1]: < 100 nM; Ki [4]: 5 nM
13 | CC1(NC(=O)N[C@H]2CCCCCCCCCC[C@@H](C(=O)C(N)=O)NC(=O)[C@@H]3[C@@H]4[C@H](CN3C2=O)C4(C)C)CCCCC1 [Example 6] |  | Ki [1]: < 100 nM
14 | CCNC(=O)C(=O)[C@@H]1CCCCCCCCC[C@H](NC(=O)NC2(CS(=O)(=O)C(C)(C)C)CCCCC2)C(=O)N2C[C@H]3[C@@H]([C@H]2C(=O)N1)C3(C)C [Example 38] | < 100 nM | 
15 | COCC(=O)CNC(=O)C(=O)C1CCCCCCC[C@H](NC(=O)OCC(C)C)C(=O)N2CCC[C@H]2C(=O)N1 (some centres unmarked) [Example 85] |  | Ki [2]: ≥ 1000 nM
16 | CC(C)COC(=O)N[C@H]1CC/C=C/CCCC(C(=O)C(=O)NCC(=O)N[C@H](C(=O)O)c2ccccc2)NC(=O)[C@@H]2CCCN2C1=O (some centres unmarked) [Example 80] |  | Ki [2]: ≥ 1000 nM
17 | C=CCNC(=O)C(=O)[C@@H]1CCCCNC(=O)OCCC[C@H](NC(=O)NC2(CS(=O)(=O)C(C)(C)C)CCCCC2)C(=O)N2C[C@H]3[C@@H]([C@H]2C(=O)N1)C3(C)C [Example 71] | < 100 nM | 
18 | C=CCNC(=O)C(=O)[C@@H]1CCCCCCCOC[C@H](NC(=O)N[C@H](CN(C)S(=O)(=O)c2cccs2)C(C)(C)C)C(=O)N2C[C@H]3[C@@H]([C@H]2C(=O)N1)C3(C)C [Example 55] | < 100 nM | 

Row | Compound | Ki [3] | further results
19 | CC(C)(C)OC(=O)N[C@H]1CCCCCCCCC[C@@H](C(=O)C(=O)NC2CC2)NC(=O)[C@@H]2[C@@H]3[C@H](CN2C1=O)C3(C)C [Example 33] | < 100 nM | 
20 | CN(C)C(=O)[C@@H](NC(=O)CNC(=O)C(=O)[C@@H]1CCCCCCCCCC[C@H](N)C(=O)N2C[C@@H]3OC(C)(C)C[C@@H]3[C@H]2C(=O)N1)c1ccccc1 [Example 78] |  | Ki [2]: ≥ 1000 nM
21 | CC(C)(C)NC(=O)N[C@H]1CCCCCCCCCC[C@@H](C(=O)C(N)=O)NC(=O)[C@@H]2[C@@H]3[C@H](CN2C1=O)C3(C)C [Example 5] |  | Ki [1]: < 100 nM
22 | CC(C)(C)OC(=O)N[C@@H]1C(=O)N2C[C@H]3[C@@H]([C@H]2C(=O)N[C@H](C(=O)C(N)=O)CCCCCCCCCC1(C)C)C3(C)C [Example 16] |  | Ki [1]: ≥ 1000 nM
23 | C=CCNC(=O)C(=O)[C@@H]1CCCCCCCCC[C@H](NC(=O)OC(C)(C)C)C(=O)N2C[C@H]3[C@@H]([C@H]2C(=O)N1)C3(C)C [Example 22] |  | Ki [1]: < 100 nM; Ki [4]: 36 nM
24 | CC(C)(C)NC(=O)N[C@H]1CCCCCCCCCC[C@@H](C(=O)C(N)=O)NC(=O)[C@@H]2[C@H]3CC(C)(C)O[C@H]3CN2C1=O [Example 12] |  | Ki [1]: 100 to 1000 nM
25 | CCNC(=O)C(=O)[C@@H]1CCCCCCCCC[C@H](NC(=O)N[C@H](CN2C(=O)CC(C)(C)CC2=O)C(C)(C)C)C(=O)N2C[C@H]3[C@@H]([C@H]2C(=O)N1)C3(C)C [Example 68] | < 100 nM | 
26 | CN(C)C(=O)[C@@H](NC(=O)CNC(=O)C(=O)[C@@H]1CCCCC=CCCCC[C@H](NC(=O)OC(C)(C)C)C(=O)N2C[C@H]3[C@@H]([C@H]2C(=O)N1)C3(C)C)c1ccccc1 [Example 1] |  | Ki [1]: < 100 nM
27 | CN(C[C@@H](NC(=O)N[C@H]1CCCCCCCCC[C@@H](C(=O)C(=O)NCC2CC2)NC(=O)[C@@H]2[C@@H]3[C@H](CN2C1=O)C3(C)C)C(C)(C)C)S(=O)(=O)c1cccs1 [Example 35] | < 100 nM | 
28 | C=CCNC(=O)C(=O)[C@@H]1CCCCCCCOC[C@H](NC(=O)N[C@H](CN(C)S(=O)(=O)CC)C(C)(C)C)C(=O)N2C[C@H]3[C@@H]([C@H]2C(=O)N1)C3(C)C [Example 63] | < 100 nM | 
29 | CC(C)COC(=O)N[C@H]1CCCCCC2(CC2)CC(C(=O)C(=O)NCC(=O)N[C@H](C(=O)O)c2ccccc2)NC(=O)[C@@H]2CCCN2C1=O (some centres unmarked) [Example 89] |  | Ki [2]: ≥ 1000 nM
30 | C=CCNC(=O)C(=O)[C@@H]1CCCCCCCCC[C@H](NC(=O)N[C@H](CN2CCC(C)(C)CC2=O)C(C)(C)C)C(=O)N2C[C@H]3[C@@H]([C@H]2C(=O)N1)C3(C)C [Example 69] | < 100 nM | 
31 | C=CCNC(=O)C(=O)[C@@H]1CCCCCCCCC[C@H](NC(=O)N[C@H](CN2C(=O)CC(C)(C)CC2=O)C(C)(C)C)C(=O)N2C[C@H]3[C@@H]([C@H]2C(=O)N1)C3(C)C [Example 51] | < 100 nM | 
32 | C[C@@H]1OCCCCCCC[C@@H](C(=O)C(=O)NC2CC2)NC(=O)[C@@H]2[C@@H]3[C@H](CN2C(=O)[C@H]1NC(=O)N[C@H](CN1C(=O)CC(C)(C)CC1=O)C(C)(C)C)C3(C)C [Example 75] | < 100 nM | 
33 | CN(C[C@@H](NC(=O)N[C@H]1CCCCCCCCC[C@@H](C(=O)C(=O)NC2CC2)NC(=O)[C@@H]2[C@@H]3[C@H](CN2C1=O)C3(C)C)C(C)(C)C)S(=O)(=O)c1cccs1 [Example 36] | < 100 nM | 
34 | CC(C)COC(=O)N[C@H]1CCCCCCCC(C(=O)C(=O)NCC(=O)O)NC(=O)[C@@H]2CCCN2C1=O (some centres unmarked) [Example 86] |  | Ki [2]: ≥ 1000 nM
35 | CCS(=O)(=O)N(C)C[C@@H](NC(=O)N[C@H]1COCCCCCCC[C@@H](C(=O)C(=O)NC2CC2)NC(=O)[C@@H]2[C@@H]3[C@H](CN2C1=O)C3(C)C)C(C)(C)C [Example 64] | < 100 nM | 

Where two headings read alike, the source gives them in different places.
